# Laboratory results taken from PubChem BioAssay AID488969 (Vanderbilt High Throughput Screening Facility, 2010).
# The full ranking holds about 110,000 compounds; the median of “z-score” is about -0.1, and the highest 2% start at about 2. The list shows a part of the results.
# Molecular target: Metabotropic glutamate receptor 8 (Rattus norvegicus) (UniProt P70579)
# Test: rat mGluR8 modulators via GIRK flux, primary screen, cell-based, thallium flux, HTS (AID 488969)
# Conditions: HEK293 rat mGluR8, GIRK (G protein-gated inwardly rectifying potassium channel) thallium flux, FluoZin2; at 10 µM; stronger effect = higher value; submaximal glutamate (EC20) added with thallium
# UniProt P70579, sequence (P70579 whole entry, looked up): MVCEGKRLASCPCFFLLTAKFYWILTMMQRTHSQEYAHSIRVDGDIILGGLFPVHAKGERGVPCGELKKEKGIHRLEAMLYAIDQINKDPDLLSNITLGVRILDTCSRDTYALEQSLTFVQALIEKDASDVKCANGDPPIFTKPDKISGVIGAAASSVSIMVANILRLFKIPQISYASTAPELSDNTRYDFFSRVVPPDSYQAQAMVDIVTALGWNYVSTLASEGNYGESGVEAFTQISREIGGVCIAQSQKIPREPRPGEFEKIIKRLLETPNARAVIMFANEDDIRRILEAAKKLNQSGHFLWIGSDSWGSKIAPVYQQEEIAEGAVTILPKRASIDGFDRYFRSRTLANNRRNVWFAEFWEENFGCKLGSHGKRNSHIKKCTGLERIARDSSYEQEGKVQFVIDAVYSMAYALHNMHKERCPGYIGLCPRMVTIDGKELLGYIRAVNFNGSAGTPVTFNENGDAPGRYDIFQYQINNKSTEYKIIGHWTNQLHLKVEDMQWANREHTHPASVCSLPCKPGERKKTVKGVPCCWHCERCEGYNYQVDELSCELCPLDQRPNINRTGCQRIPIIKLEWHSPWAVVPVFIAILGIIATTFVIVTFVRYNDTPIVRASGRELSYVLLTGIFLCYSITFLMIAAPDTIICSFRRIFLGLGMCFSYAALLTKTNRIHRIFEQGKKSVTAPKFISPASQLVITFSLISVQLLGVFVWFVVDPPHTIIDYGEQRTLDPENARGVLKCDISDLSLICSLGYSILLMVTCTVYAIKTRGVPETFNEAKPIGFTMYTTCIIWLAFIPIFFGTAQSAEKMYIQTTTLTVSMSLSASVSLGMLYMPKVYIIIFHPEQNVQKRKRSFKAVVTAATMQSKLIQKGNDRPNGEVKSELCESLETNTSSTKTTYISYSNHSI
row,Structure (SMILES),z-score
1,CCOC(=O)Cc1csc(SCC(=O)Nc2cc(Cl)ccc2Oc2ccccc2)n1,-0.0682
2,Cc1cccc(NC(=O)CSc2nnc(C)c(=O)n2N)c1C,-0.154
3,Cc1cc(NC(=O)c2ccc(N(C)S(=O)(=O)c3ccccc3)cc2)no1,-0.456
4,O=C(c1ccco1)N(Cc1cc2ccccc2[nH]c1=O)CC1CCCO1 (stereo not given),-0.102
5,COCCSc1ccccc1C(=O)Nc1ccc(Cl)cn1,-0.0354
6,CC(=O)c1ccc(OC(=O)CCN2c3ccccc3Sc3ccccc32)cc1,-0.68
7,Cc1ccc(NC(=O)Nc2ccc3c(c2)N(C)C(=O)CS3)cc1C,-1.14
8,COCc1cc(=O)[nH]c(/N=C(\N)Nc2ccccc2C)n1,-0.075
9,N#Cc1ccsc1NC(=O)CN1CCN(c2ccccn2)CC1,-0.0277
10,c1ccc(-c2nc3ccccc3c3nc4ccccc4n23)cc1,-0.47
11,Cc1ccc2c(c1)CCCN2C(=O)c1cccs1,-1.65
12,C1CCN=C(Nc2nc3c(s2)CCCC3)CC1,0.048
13,CC(=O)N(Cc1cc(=O)[nH]c2ccccc12)c1ccc(C)cc1,0.534
14,COc1cc(C(=S)N2CCC(C)CC2)ccc1O,-0.0658
15,CCOC(=O)Cn1c(=O)oc2cc(S(=O)(=O)NCCc3ccc(C)cc3)ccc21,-0.171
16,Cc1nn(C)c(C)c1N1C(=O)c2cccc3c(Br)ccc(c23)C1=O,-0.96
17,O=C(Nc1ccc(N2CCOCC2)c2nonc12)C1CCCC1,0.00981
18,CCC(=O)NS(=O)(=O)c1ccc(N=NN2CCCCC2)cc1,0.4
19,COc1ccccc1-c1nc(-c2ccccn2)no1,-0.234
20,COc1cc(/C=C/C(=O)O)ccc1OCc1ccccc1C#N,0.18
21,COC(=O)c1nn(-c2ccccc2)c(Sc2ccccc2)c1/C=N/O,-0.23
22,Cc1ccc(S(=O)(=O)/N=C(/Nc2c(C)n(C)n(-c3ccccc3)c2=O)c2ccc(Cl)cc2)cc1,0.135
23,Brc1ccc(-c2nc3ccccc3s2)s1,0.0471
24,COc1ccc(CCNC(=O)CC2SC(=NCCc3ccccc3)NC2=O)cc1 (stereo not given),-0.264
25,CSc1cc(-c2ccc(Cl)cc2)c(C(=O)NN)s1,0.0299
26,CC(C)(C)c1ccc(OCC(=O)NNC(=O)Cc2cccs2)cc1,-0.494
27,COc1ccc(CCN2C(=O)C3C4CC(C5C(C(N)=O)=NOC45)C3C2=O)cc1OC (stereo not given),-0.0306
28,COc1ccc(OC)c(N2Cc3cc(C)c(C)cc3C2)c1,0.286

row,Structure (SMILES),z-score
1,Cc1ccccc1-n1c(SCc2c(C)noc2C)nnc1-c1ccncc1,0.161
2,O=C(COC(=O)CSc1ccc2ccccc2c1)Nc1ccccc1OC(F)F,0.0906
3,CCOC(=O)N1CCC(NC(=O)COc2cc(=O)n(C)c3ccccc23)CC1,-0.602
4,COc1ccccc1N1C(=O)CC1(C#N)c1ccc(OCc2ccccc2)cc1 (stereo not given),-0.14
5,CCOC(=O)c1sc(N)c(C(=O)OCC)c1COC(=O)C1CC(=O)N(Cc2ccco2)C1 (stereo not given),-1.92
6,Cc1cc([N+](=O)[O-])ccc1NC(=O)Cc1ccc(F)cc1,-0.108
7,CC1CCN(C(=O)C2(NC(=O)Nc3cccc(F)c3)CCCCC2)CC1,0.5
8,O=C(O)CC1Sc2nc3ccccc3n2C1=O (stereo not given),-0.113
9,Cn1c(SCC(=O)NNC(=O)Cc2ccccc2)nnc1-c1ccccc1,1.27
10,Cc1c(Br)c(C(F)(F)F)nn1CC(=O)NCc1ccccc1,-0.0456
11,Cc1ccc(C2C(C#N)=C(N)N(c3ncn[nH]3)C3=C2C(=O)CC(C)(C)C3)cc1 (stereo not given),-0.15
12,CCN(CC)C(=O)Cn1c(=O)n(Cc2ccccc2Cl)c2c1c(=O)n(C)c(=O)n2C,-0.17
13,COC(=O)C1=CN(C)C=C(C(=O)OC)C1c1ccsc1,1.71
14,COc1ccc(S(=O)(=O)N2CCCC(C(=O)NCCC3=CCCCC3)C2)cc1 (stereo not given),0.0437
15,O=C(CNC(=O)C(c1ccccc1)c1ccccc1)N/N=C\c1ccc2c(c1)OCO2,-0.232
16,CCN(CC)C(=O)CSc1nc(-c2ccc(C)cc2)nc2c1COC(C)(C)C2,-0.573
17,Cn1c(O)c(N=NC(=O)c2cc(-c3cccs3)nc3ccccc23)c2ccccc21,-0.864
18,COc1ccc(C)cc1S(=O)(=O)N(CC(=O)N1CCCC1)c1ccccc1,0.141
19,COc1cccc(/C=C/C(=O)OCC(=O)NCC2CCCO2)c1 (stereo not given),0.184
20,CCOC(=O)c1[nH]c2ccccc2c1NC(=O)Nc1ccc(OC)cc1,-0.231
21,COC(=O)c1ccccc1NC(=O)C1CCN(S(=O)(=O)c2cc(OC)ccc2OC)CC1,-0.749
22,COc1cc(OC)cc(C(=O)N2CCN=C2SCc2cccnc2)c1,-0.736
23,O=C(CCN1CCN(Cc2ccccc2)CC1)Nc1ccccc1Cl,-0.198
24,CC(=O)N1CCC(=NNC(=O)CSc2cc(C)c(Br)cc2C)CC1,-0.115
25,Cc1ccc(-c2nn(Cc3ccccc3)cc2/C=C/C(=O)O)cc1,-0.493
26,COc1ccc(NC(=O)c2n[nH]c(=O)c3ccccc23)cc1S(=O)(=O)N1CCCCC1,-0.493
27,CC(NC(=O)c1cccnc1)c1ccc2c(c1)OCO2 (stereo not given),0.17
